The record followed here is article PMC5533585.

Amino acid sequences for entries named in this document (tags omitted). Chains listed by the source or under a name are the forms on record and can include a tag or linker. Residues count along the entry.
UniProt P63172: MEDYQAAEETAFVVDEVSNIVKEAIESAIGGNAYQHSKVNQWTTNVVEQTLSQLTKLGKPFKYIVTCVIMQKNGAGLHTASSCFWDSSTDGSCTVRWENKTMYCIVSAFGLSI
UniProt Q8TD16, residues 1-422: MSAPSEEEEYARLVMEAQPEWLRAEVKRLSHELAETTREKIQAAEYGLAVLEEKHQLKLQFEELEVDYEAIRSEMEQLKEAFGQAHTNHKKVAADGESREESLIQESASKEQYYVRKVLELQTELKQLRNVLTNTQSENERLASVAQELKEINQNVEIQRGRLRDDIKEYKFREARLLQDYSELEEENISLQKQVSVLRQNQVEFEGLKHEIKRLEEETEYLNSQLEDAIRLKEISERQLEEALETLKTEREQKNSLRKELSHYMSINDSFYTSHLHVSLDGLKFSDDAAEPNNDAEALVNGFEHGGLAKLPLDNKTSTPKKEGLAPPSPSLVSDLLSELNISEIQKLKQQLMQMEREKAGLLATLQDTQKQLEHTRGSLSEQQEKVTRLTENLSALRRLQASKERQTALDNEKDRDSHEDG
NINL (1-702) tagged with GFP and 3×FLAG (Q9Y2I6, residues 1-702): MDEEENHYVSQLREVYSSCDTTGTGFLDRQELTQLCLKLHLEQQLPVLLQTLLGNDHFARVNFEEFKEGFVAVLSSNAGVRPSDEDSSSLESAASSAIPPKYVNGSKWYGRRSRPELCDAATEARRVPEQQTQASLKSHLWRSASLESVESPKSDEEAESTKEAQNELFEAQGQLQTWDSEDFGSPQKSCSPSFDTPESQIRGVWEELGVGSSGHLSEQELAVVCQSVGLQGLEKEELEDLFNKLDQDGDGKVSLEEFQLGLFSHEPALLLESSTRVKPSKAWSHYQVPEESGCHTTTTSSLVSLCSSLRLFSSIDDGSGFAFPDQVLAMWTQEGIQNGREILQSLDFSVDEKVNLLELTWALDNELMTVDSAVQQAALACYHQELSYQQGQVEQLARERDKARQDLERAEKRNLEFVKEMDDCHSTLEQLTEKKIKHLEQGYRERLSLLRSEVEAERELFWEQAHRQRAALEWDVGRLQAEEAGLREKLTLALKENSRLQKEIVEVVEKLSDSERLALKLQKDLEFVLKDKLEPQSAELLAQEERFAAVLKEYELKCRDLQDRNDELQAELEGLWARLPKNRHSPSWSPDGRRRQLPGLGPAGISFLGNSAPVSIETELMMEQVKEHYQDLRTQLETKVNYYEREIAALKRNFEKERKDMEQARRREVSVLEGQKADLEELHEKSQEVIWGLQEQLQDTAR
NINL (373-702) (Q9Y2I6, residues 373-702): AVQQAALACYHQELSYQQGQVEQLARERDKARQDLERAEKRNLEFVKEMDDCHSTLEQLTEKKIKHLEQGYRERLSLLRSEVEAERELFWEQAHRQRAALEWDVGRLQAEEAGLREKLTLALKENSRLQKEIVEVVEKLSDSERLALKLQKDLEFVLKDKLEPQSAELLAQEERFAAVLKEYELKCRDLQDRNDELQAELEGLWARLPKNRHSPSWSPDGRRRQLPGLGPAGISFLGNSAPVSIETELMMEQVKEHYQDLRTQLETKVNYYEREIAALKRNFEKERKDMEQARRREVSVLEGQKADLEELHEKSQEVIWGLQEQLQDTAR
UniProt Q14204: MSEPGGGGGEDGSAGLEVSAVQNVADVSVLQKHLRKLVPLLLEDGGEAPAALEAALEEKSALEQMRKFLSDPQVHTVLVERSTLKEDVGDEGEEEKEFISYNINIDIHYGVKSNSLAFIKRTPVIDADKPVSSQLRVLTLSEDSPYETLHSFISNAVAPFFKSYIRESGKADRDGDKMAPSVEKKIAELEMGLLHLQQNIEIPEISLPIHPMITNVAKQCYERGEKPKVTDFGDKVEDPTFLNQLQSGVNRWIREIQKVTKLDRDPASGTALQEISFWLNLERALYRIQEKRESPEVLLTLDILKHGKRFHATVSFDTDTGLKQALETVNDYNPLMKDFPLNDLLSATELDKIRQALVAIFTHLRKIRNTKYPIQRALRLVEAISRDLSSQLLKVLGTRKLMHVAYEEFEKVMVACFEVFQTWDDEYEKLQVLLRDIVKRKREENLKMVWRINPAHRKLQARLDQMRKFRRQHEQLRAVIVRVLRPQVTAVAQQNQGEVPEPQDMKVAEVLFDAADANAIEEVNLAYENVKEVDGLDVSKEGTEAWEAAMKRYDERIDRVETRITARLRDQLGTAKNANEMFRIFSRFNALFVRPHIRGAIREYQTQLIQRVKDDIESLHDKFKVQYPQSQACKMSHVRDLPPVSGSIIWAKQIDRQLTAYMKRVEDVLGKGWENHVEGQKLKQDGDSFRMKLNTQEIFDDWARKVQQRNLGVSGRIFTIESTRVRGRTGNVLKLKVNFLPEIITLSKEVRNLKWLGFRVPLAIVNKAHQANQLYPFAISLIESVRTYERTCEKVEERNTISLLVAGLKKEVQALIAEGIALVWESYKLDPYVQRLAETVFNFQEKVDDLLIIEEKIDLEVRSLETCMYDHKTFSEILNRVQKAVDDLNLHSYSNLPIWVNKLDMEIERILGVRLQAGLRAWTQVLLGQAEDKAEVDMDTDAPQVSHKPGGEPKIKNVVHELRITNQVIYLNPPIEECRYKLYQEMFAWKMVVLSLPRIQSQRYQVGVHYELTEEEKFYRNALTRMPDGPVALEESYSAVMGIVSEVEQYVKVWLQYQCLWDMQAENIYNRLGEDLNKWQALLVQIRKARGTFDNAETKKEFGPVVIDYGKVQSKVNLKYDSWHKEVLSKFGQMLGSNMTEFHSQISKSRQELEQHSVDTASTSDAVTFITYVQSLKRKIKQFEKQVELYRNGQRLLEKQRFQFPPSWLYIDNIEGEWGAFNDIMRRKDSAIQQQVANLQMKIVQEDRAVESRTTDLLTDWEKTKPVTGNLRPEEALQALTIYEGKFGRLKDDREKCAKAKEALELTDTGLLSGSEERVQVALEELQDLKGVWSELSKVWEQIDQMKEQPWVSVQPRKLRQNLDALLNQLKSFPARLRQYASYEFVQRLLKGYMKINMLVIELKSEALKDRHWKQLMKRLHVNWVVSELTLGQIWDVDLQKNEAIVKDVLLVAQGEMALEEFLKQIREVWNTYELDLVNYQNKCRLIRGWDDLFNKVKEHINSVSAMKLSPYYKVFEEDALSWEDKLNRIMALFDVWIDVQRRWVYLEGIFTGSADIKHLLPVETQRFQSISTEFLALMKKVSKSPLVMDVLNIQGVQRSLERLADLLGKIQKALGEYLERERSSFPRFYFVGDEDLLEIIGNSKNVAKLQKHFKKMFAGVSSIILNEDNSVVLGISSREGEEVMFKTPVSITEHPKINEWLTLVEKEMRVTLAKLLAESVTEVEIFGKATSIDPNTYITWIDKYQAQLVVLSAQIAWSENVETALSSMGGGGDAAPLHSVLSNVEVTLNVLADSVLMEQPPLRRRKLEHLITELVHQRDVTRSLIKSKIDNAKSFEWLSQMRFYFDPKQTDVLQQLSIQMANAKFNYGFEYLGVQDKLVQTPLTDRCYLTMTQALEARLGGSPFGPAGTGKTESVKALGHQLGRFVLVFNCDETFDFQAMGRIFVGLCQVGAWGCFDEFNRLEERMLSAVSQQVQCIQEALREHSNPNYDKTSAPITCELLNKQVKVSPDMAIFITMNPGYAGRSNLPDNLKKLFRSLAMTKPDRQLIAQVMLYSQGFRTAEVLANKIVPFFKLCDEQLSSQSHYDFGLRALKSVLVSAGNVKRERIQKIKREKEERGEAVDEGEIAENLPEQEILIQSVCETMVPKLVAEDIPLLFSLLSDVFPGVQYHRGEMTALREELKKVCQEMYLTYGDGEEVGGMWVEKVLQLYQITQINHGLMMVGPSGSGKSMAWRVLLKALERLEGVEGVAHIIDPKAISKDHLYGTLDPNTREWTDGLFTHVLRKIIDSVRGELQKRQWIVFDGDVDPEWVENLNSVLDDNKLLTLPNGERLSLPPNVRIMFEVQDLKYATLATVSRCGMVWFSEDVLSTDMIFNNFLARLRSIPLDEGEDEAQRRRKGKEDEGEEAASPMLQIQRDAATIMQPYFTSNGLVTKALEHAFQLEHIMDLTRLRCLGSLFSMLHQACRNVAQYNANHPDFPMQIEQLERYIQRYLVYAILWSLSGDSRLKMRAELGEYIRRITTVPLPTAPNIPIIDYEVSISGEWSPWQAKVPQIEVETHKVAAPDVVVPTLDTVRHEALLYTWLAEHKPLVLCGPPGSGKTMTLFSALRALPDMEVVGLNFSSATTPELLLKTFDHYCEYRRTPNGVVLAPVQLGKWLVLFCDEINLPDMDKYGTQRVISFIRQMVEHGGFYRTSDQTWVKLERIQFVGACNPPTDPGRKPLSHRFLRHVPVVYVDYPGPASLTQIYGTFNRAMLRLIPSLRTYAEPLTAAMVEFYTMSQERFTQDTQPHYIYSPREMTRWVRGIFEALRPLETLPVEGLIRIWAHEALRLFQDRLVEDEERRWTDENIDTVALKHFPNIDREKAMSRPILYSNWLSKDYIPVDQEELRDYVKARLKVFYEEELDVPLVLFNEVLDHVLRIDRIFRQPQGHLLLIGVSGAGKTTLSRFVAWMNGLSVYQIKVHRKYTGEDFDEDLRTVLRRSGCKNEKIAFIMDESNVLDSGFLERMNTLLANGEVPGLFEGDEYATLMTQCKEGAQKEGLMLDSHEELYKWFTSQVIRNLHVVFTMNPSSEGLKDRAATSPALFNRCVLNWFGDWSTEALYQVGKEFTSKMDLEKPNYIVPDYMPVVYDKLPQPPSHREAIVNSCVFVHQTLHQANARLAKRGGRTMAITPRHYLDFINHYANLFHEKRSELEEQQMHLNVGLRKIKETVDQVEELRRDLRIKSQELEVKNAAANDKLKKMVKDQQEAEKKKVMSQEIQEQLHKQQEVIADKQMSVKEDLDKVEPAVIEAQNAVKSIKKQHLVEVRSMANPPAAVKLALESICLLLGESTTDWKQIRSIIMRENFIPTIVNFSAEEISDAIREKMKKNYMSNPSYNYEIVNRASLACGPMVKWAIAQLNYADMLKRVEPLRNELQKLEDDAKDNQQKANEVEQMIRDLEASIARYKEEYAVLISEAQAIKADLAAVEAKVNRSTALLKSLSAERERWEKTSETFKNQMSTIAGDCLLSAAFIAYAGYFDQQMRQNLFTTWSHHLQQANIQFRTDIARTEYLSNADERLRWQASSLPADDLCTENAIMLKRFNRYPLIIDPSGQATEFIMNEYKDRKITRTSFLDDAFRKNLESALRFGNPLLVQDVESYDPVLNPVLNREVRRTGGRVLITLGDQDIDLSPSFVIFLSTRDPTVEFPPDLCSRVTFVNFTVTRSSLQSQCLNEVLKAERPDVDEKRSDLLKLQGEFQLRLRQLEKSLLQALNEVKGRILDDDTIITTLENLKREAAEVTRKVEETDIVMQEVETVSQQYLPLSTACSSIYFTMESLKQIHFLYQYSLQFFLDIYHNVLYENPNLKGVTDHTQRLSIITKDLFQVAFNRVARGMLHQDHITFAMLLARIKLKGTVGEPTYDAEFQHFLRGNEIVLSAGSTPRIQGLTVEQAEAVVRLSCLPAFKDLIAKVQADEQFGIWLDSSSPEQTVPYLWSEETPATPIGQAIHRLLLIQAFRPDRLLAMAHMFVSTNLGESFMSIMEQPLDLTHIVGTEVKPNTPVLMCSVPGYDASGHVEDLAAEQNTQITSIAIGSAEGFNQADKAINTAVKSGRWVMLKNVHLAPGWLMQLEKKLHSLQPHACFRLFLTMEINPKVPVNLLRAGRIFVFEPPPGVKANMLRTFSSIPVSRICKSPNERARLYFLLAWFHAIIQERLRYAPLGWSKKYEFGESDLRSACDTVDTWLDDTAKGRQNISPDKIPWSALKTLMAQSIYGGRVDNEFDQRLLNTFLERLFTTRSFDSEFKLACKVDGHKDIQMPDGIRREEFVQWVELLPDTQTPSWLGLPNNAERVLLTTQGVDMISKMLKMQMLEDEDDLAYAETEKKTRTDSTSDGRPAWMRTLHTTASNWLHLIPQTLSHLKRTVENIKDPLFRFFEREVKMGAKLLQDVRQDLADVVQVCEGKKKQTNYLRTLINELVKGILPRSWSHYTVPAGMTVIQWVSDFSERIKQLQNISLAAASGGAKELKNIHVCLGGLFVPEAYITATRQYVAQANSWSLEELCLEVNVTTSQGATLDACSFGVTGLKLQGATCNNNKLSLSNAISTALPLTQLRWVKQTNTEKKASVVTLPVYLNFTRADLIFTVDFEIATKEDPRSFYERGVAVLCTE

These are yes or no findings as the source states them, for the method shown. In cells and extracts the contact can be indirect. Some binding calls cover weakened binding; strength is not graded here. For some of these results: Tags and fused reporters may be left off the sequences shown.

The target of experiment [1] is p62-BioID-3×FLAG (human) (UniProt Q9UJW0). Briefly: condition: only 'harsh' detergent lysis buffer (0.1% SDS, 0.5% sodium deoxycholate, 1% NP40); co-IP; as a1 but 'harsh' detergent lysis buffer (50 mM Tris-HCl pH 8.0, 150 mM NaCl, 0.1% SDS, 0.5% sodium deoxycholate, 1% NP40, 0.5 mM ATP, 1 mM DTT).
Experiment [2] has as its target LIC2-BioID-3×FLAG (human) (UniProt O43237). Briefly: co-IP; stable HEK-293 cell lines; dynein lysis buffer (25 mM HEPES pH 7.4, 50 mM potassium acetate, 2 mM magnesium acetate, 1 mM EGTA, 10% glycerol, 1 mM DTT) with 0.2% Triton X-100, 0.5 mM Mg-ATP; anti-FLAG M2 agarose, 16 hr or 2 hr, 4°C; Western blots with α-HC and α-p150. On the technique in general: Immunoblotting shows a protein as a band on a membrane.

For experiment [3], the target named is BioID-TCTEX1-3×FLAG (human) (UniProt P63172). The experiment is described as above.
Experiment [4] addresses p62-BioID-3×FLAG (human) (UniProt Q9UJW0). The description is as above.
Experiment [5] addresses LIC1-BioID-3×FLAG (human) (UniProt Q9Y6G9). The description is as above.
Experiment [6] addresses sfGFP-BICD2 [1-422]-3×FLAG (human) (UniProt Q8TD16). The experiment can be described thus: co-IP; transiently transfected HEK293-T cells; anti-FLAG M2 agarose, 2 hr, 4°C; elution with 3×FLAG peptide; Western blots with α-HC, α-p150, α-FAM160A2, α-KIF1C.
Experiment [7] addresses NINL (373-702) (human) (UniProt Q9Y2I6). The experiment is described as above.
In experiment [8] the target is T1, NIN (1-693) tagged with GFP and 3×FLAG (human) (UniProt Q8N4C6).
T1 sequence: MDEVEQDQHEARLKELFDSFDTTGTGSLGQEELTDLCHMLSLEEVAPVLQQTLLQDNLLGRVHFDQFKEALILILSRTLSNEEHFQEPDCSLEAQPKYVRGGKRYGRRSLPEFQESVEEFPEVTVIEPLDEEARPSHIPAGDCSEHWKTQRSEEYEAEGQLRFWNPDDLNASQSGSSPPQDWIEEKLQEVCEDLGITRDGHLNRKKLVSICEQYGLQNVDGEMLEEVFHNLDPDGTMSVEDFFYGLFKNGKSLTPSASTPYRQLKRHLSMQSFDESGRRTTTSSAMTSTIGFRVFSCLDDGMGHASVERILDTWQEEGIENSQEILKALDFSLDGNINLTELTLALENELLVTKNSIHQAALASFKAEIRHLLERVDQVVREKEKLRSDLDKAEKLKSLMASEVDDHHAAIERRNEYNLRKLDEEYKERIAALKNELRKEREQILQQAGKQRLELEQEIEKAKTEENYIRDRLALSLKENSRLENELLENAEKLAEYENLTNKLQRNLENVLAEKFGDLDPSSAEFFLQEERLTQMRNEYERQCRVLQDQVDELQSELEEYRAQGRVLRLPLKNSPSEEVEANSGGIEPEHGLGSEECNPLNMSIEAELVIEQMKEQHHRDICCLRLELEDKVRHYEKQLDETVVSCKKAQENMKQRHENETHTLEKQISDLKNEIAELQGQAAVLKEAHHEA
Described as above.

Experiment [9] addresses T2, sfGFP-daple [1-545]-3×FLAG (human) (UniProt Q9P219).
T2 sequence: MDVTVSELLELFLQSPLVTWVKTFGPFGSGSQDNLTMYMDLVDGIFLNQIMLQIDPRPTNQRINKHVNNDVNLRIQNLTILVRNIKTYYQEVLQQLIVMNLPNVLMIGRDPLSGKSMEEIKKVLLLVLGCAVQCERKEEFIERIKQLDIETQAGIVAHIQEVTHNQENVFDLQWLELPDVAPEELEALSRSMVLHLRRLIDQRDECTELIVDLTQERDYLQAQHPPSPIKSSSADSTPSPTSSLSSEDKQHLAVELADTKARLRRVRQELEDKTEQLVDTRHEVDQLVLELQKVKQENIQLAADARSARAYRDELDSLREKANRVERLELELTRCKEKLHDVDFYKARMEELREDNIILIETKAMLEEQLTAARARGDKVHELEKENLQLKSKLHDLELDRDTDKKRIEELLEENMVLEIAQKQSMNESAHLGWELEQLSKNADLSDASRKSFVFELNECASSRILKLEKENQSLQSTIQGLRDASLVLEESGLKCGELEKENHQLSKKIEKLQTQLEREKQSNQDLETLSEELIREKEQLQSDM
Described as above.

Experiment [10] has as its target T3, sfGFP-girdin [1-425]-3×FLAG (human) (UniProt Q3V6T2).
T3 sequence: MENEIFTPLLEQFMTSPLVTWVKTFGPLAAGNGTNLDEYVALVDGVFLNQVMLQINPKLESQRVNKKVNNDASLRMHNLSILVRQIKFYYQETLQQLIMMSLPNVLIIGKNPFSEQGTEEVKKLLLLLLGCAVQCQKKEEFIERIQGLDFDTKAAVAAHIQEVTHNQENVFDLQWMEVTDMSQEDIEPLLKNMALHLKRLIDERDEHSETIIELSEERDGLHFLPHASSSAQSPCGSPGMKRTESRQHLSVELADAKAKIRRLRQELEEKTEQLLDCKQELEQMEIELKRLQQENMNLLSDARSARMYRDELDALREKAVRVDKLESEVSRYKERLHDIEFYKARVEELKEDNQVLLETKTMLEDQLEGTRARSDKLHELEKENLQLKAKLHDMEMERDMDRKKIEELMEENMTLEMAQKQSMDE
The experiment is described as above.

For experiment [11], the target named is T4, sfGFP-HOOK3 [1-552]-3×FLAG (human) (UniProt Q86VS8).
T4 sequence: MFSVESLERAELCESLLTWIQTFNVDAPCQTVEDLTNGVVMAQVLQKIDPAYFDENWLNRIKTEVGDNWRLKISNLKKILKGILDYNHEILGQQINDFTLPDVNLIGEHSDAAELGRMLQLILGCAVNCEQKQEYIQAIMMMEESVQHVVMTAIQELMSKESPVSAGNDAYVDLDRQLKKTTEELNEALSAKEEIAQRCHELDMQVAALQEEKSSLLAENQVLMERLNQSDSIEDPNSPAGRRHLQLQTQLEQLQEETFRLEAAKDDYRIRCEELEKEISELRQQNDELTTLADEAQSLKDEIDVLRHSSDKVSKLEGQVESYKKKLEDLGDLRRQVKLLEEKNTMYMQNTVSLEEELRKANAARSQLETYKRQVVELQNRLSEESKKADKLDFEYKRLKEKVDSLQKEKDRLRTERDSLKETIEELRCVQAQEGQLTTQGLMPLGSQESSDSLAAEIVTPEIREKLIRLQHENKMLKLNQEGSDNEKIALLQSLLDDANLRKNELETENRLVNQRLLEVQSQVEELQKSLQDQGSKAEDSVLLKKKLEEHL
Described as above.

Experiment [12] has as its target T5, NIN (353-580) (human) (UniProt Q8N4C6).
T5 sequence: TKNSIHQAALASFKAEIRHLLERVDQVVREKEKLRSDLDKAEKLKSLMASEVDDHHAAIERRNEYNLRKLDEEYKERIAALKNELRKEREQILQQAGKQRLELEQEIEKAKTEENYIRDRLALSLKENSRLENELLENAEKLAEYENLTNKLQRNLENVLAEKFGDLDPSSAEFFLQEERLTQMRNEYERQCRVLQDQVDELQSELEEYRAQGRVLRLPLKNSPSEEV
The experiment is described as above.

Experiment [13] has as its target T6, girdin [1-542]-sfGFP-3×FLAG (human) (UniProt Q3V6T2).
T6 sequence: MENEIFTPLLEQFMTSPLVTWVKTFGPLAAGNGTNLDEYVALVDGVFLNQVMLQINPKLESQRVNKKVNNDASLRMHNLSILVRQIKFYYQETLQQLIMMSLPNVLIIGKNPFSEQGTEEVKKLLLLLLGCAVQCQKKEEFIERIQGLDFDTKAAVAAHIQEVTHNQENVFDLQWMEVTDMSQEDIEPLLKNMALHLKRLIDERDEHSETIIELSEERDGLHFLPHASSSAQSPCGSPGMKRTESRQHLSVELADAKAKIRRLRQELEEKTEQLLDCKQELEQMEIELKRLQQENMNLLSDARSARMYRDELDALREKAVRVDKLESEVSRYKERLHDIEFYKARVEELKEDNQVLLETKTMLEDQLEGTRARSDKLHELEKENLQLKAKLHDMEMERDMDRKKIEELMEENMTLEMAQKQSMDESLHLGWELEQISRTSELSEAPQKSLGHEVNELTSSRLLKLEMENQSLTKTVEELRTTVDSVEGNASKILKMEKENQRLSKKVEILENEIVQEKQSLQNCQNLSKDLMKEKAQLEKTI
The description is as above.

Experiment [14] addresses NINL (1-702) tagged with GFP and 3×FLAG (human) (UniProt Q9Y2I6). Described as above.
The target of experiment [15] is p62-BioID-3×FLAG (human) (UniProt Q9UJW0). The experiment can be described thus: co-IP; stable HEK-293 cell lines; anti-FLAG M2 agarose, 16 hr, 4°C; 'mild' detergent lysis buffer (50 mM Tris-HCl pH 7.4, 100 mM NaCl, 0.2% Triton X-100, 1 mM DTT, 0.5 mM ATP); elution with 3×FLAG peptide; Western blots with α-HC and α-p150.

As to “p150 dynactin subunit (from UniProt Q14203-1 1-1278)”, the binding entry is given as “no binding” in [1]; “binds” in experiment [2]; “binds” in [3]; “binds” in [4]; “binds” in experiment [5]; “binds” in experiment [6]. The binding result in experiment [7] is on record as “binds”; in experiment [8] it was “binds”; in [9] it was “binds”; in experiment [10], “binds”; in experiment [11], “binds”; in experiment [12], “no binding”. The binding entry in experiment [13], in [14] and in experiment [15] was “binds” each time.

As for “cytoplasmic dynein-1 heavy chain (from UniProt Q14204 1-4646)”, the binding result in experiment [4], in experiment [6], in experiment [7], in experiment [9], in experiment [10] and in experiment [13] was “binds” throughout. The binding result in experiment [14] is reported as “binds”.
